We go through 57 molecules from PubChem BioAssay AID463173 (ICCB-Longwood Screening Facility, Harvard Medical School, 2010).

Molecules are shown by their SMILES. In all, about 52,000 compounds went through this assay and about 4,300 (8.3%) were called active. No stated cut-off is given here; in the data, active means survival mostly below about 52% (no sharp cut-off); inactive means mostly above about 56%. This is one part of the list.

The assay deals with DeltatarO mutant. The assay is described as follows: S. aureus survival, RN4220 and DeltatarO strains – OD600, teichoic acid synthesis inhibitors, primary screen (AID 463173). The settings on record: S. aureus RN4220 wild type/DeltatarO growth, OD600, 18 h, hits give low values, screened at 18.75 µg/mL (by protocol).
For the molecule `O=C(CC1CCCCC1)NCc1ccco1`, the survival is inactive: 69%.

On to `Cc1ccsc1CN(C(=O)c1oc2ccc(F)cc2c1C)C1CCS(=O)(=O)C1` (configuration not stated), for which the survival was inactive: 69%.

Regarding `CCOc1ccccc1NC(=O)N(Cc1ccc(F)cc1)C1CCN(CC)CC1`, the survival was inactive: 60%.

In the case of `Cc1cccc(CCNc2ncnc3onc(-c4ccc(Cl)cc4)c23)c1`, the survival was active: 33%.

On to `Cc1[nH]c2ccc(-c3nnc(SCC(=O)N4CCCC4)o3)cc2c1C`, for which the survival is inactive: 83%.

As for `COC(=O)c1ccc(NC(=O)CN(CCc2ccccc2)S(=O)(=O)c2ccc(OC)cc2)cc1`, the survival was inactive: 69%.

Regarding `Cc1cccc(Cn2nc(C)n3c(cc4cc(C)ccc43)c2=O)c1`, the survival was inactive: 84%.

With `COc1ccc2o/c(=N\O)c(C(N)=O)cc2c1`, the survival was inactive: 117%.

In the case of `CCc1ccc2oc(C(=O)Nc3c(C)n(C)n(-c4ccccc4)c3=O)cc(=O)c2c1`, the survival was inactive: 97%.

For the molecule `Cc1ccccc1Cn1c2ccccc2c2cnn(CC(=O)NC(C)CCc3ccccc3)c(=O)c21` (configuration not stated), the survival is inactive: 76%.

Consider `CCOC(=O)c1ccc(N2C(=O)c3n[nH]c(C)c3C2c2ccccc2OC)cc1` (configuration not stated), for which the survival was inactive: 98%.

In the case of `N#Cc1ccc(C(=O)NCc2ccc3c(c2)CCN3C(=O)c2ccc(F)cc2)cc1`, the survival was inactive: 83%.

For the molecule `Cc1oc(-c2cccc(Cl)c2)nc1CS(=O)(=O)CC(=O)NCc1ccccc1Cl`, the survival is inactive: 49%.

Regarding `CCCOc1ccc(C(=O)Nc2cc3c(cc2N2CCOCC2)n(C)c(=O)n3C)cc1`, the survival was inactive: 140%.

In the case of `Cc1cccc(N2C(=O)C(CC(=O)Nc3ccc(Cl)cc3)N(Cc3ccco3)C2=O)c1` (configuration not stated), the survival is inactive: 101%.

`Cc1cccc(-n2c(=O)c3c(c4cc(C)ccc4n3C)n(CC(=O)NCC3CCCO3)c2=O)c1` (configuration not stated): the survival is inactive: 68%.

In the case of `Cc1oc2ccc(O)c(CN3CCN(C)CC3)c2c1C(=O)Nc1cccc(Cl)c1C`, the survival is inactive: 81%.

`Cc1ccc2c(c1)c(=O)c1ccccc1n2CCCC(=O)Nc1cc(Cl)ccc1C`: the survival is inactive: 113%.

As for `COc1ccc2c(CNCc3cccs3)c(C(=O)O)n(Cc3ccc(C)cc3)c2c1`, the survival is inactive: 77%.

As to `Cc1nn(CC(=O)O)c(=O)c2cc3cc(F)ccc3n12`, the survival is inactive: 119%.

For the molecule `COc1ccccc1NC(=O)c1cc(S(=O)(=O)N2CCN(c3ccccc3Cl)CC2)ccc1F`, the survival is inactive: 102%.

For the molecule `O=C(Nc1cc(Cl)cc(Cl)c1)c1ccc2c(c1)N(Cc1cccc(Cl)c1)C(=O)c1ccccc1S2=O` (configuration not stated), the survival was inactive: 76%.

Take `COC(=O)c1ccc(C2c3c(oc4ccccc4c3=O)C(=O)N2c2nc(C)c(C(=O)OC)s2)cc1` (configuration not stated): the survival is inactive: 71%.

In the case of `Cc1ccc(C)c(N2CCN(c3ccc4cc(S(=O)(=O)N5CCC(C)CC5)ccc4n3)CC2)c1`, the survival was inactive: 85%.

As for `Cc1ccc(C)c(N2CCN(C(=O)c3cc(C)nc4c3c(C)nn4-c3cccc(F)c3)CC2)c1`, the survival was active: 8%.

With `CCn1c(C(=O)NCc2ccc(OC(C)C)cc2)cc2oc3ccccc3c21`, the survival was active: 33%.

Consider `CC1CCC(C(C)C)C(OC(=O)Cn2nnc3c(cnn3-c3ccccc3)c2=O)C1` (configuration not stated), for which the survival is inactive: 70%.

Take `CN1C=CC=C/C1=C1\SC(=S)N(C2CCCCC2)C1=O`: the survival is inactive: 78%.

Turning to `CCOc1ccc(-n2c(SCC(=O)N3CCC(C)CC3)nc3c([nH]c4ccccc43)c2=O)cc1`, the survival is inactive: 72%.

Consider `CCOc1ccccc1CNC(=O)c1ccc(N2Cc3ccccc3Oc3ncccc32)s1`, for which the survival is inactive: 83%.

On to `Cc1cc(C)c(C#N)c(SCc2cccnc2)n1`, for which the survival was inactive: 53%.

Regarding `Cc1ccc(N2C(=O)NC(NS(=O)(=O)c3ccccc3)(C(F)(F)F)C2=O)cc1C` (configuration not stated), the survival is inactive: 65%.

With `Cc1cccc(NC(=O)N2CCN(C(=O)c3nsc4ccccc34)CC2)c1C`, the survival was inactive: 88%.

`COc1cccc(NC(=O)CN2C(=O)CSc3ccc(S(=O)(=O)N4CCCC4)cc32)c1`: the survival is inactive: 111%.

On to `Cc1ccc2c(CC(=O)Nc3ccc(S(=O)(=O)N4CCCCC4C)cc3)coc2c1` (configuration not stated), for which the survival is inactive: 75%.

Consider `Cc1ccc(CNC(=O)c2cccn2-c2nnc(N3CCCC3)s2)cc1`, for which the survival was inactive: 70%.

Regarding `Cc1cc(N2CCCCC2)nc2ccc(NC(=O)/C=C/c3ccc(OC(C)C)cc3)cc12`, the survival was inactive: 50%.

On to `Cc1ccc(NC(=O)c2cnc(N3CCCCC3)c3ccccc23)c(C)c1`, for which the survival is inactive: 92%.

Regarding `COCCCNC(=O)C1CCN(C(=O)c2cnn(-c3ccccc3)c2-n2cccc2)CC1`, the survival was inactive: 90%.

Take `CCCN1CCN(C(=O)Cn2c(-c3cccs3)cc3ccccc32)CC1`: the survival is inactive: 95%.

Take `COC(=O)c1c(Oc2ccc(OC)cc2)nnc(-c2ccccc2)c1-c1ccccc1`: the survival was inactive: 101%.

As for `CCCCOc1ccc(C2=NC(c3cccs3)=Nc3ccc(CC)cc3N2)cc1`, the survival was inactive: 87%.

As for `CC(C)CC(=O)Nc1nc2nc(-c3ccccc3)cc(=O)n2[nH]1`, the survival is inactive: 72%.

In the case of `CCOc1ccc(C(=O)Nc2nnc(S(=O)(=O)Nc3ccccc3)s2)cc1`, the survival was active: 34%.

For the molecule `CCOc1cc2[nH]c(=O)n(CCCCC(=O)N3CCN(c4ccc(OC)cc4)CC3)c(=O)c2cc1OCC`, the survival was inactive: 72%.

For `Cc1ccc(CNC(=O)CCc2c(C)c3ccc(O)c(C)c3oc2=O)cc1`, the survival was inactive: 76%.

As for `CSc1cccc(Nc2cc(C(=O)NCCc3ccc(Cl)cc3)c3ccccc3n2)c1`, the survival is inactive: 103%.

Take `CC1CN(C(=O)N2CCC(C(=O)N3CCN(c4ccccc4)CC3)CC2)c2cc(Cl)ccc2O1` (configuration not stated): the survival was inactive: 52%.

In the case of `Cc1ccc2[nH]c(C)cc(=S)c2c1`, the survival was active: 45%.

Consider `Clc1ccc2c(c1)-c1c(cnc3cc(-c4ccccc4)nn13)CO2`, for which the survival is inactive: 62%.

Take `COc1ccc(N2CCN(C(=O)c3cnn(-c4ccc(F)cc4)c3-n3cccc3)CC2)cc1`: the survival was inactive: 79%.

For the molecule `COC(=O)COc1ccc2oc(-c3ccc(OC)cc3)cc(=O)c2c1`, the survival is active: 36%.

With `CCC1CCCCN1CCCNC(=O)CN1C(=O)c2cccnc2Oc2ccc(C)cc21` (configuration not stated), the survival is inactive: 78%.

Regarding `O=C(Nc1ccc(Br)cc1F)C1CCN(c2nc3ccccc3[nH]2)CC1`, the survival was inactive: 102%.

As for `CCOC(=O)N1CCN(C(=O)c2c(C)nn(-c3cccc(C)c3)c2-n2cccc2)CC1`, the survival is active: 20%.

Regarding `COc1ccccc1CNS(=O)(=O)c1ccc2c(c1)CC(=O)N2C`, the survival is inactive: 105%.

`COC(=O)c1sc2ncccc2c1-n1c(C)ccc1C`: the survival was inactive: 91%.
